# Reference: publication PMC6919601, “Identification of Plasmodium dipeptidyl aminopeptidase allosteric inhibitors by high throughput screening” (PLoS ONE, 2019)
# Among all 110,000 compounds or so, about 230 (0.21%) showed an effect of 50% or more. Some of the results follow.
# Target: DPAP1 (Plasmodium falciparum, UniProt Q8IIJ9)
# Experiment: primary screen, percent inhibition; read by cleavage of a fluorogenic dipeptide substrate; higher = more effect of the substance
# Design: species or system P. falciparum D10 trophozoite lysates; single well
# 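Further: 30 min substrate incubation versus DMSO and 10 µM JCP410 controls.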
# DPAP1, sequence (Q8IIJ9 whole entry, looked up): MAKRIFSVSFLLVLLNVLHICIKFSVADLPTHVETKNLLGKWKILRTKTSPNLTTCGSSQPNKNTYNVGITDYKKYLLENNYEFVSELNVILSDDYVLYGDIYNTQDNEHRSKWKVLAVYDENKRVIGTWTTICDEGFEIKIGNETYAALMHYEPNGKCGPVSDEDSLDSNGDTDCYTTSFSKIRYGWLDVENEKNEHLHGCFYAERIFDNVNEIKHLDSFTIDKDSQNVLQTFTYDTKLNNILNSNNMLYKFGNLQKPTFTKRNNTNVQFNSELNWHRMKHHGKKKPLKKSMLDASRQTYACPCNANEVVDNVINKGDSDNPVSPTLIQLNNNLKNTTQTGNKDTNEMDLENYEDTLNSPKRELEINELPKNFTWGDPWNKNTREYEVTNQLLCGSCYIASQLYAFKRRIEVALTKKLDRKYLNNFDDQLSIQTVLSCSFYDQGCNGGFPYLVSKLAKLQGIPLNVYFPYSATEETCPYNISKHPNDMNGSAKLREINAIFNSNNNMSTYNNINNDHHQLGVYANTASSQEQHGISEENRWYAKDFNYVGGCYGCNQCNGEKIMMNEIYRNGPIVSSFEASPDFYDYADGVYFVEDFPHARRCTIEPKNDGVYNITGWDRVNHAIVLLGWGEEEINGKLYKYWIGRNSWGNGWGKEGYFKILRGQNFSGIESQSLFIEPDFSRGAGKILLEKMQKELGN
row,Structure (SMILES),% Inhibition @ 10 uM [%]
1,COc1cccc(C2C(C#N)=C(N)Oc3c2ccc2ccccc32)c1 (stereo not shown),0.912
2,Cc1ccc(C)c(S(=O)(=O)NCC(=O)Nc2sc3c(c2C(N)=O)CCC(C)C3)c1 (stereo not shown),-1.28
3,CCC(C)NC(=O)CCNS(=O)(=O)c1ccc2[nH]c(-c3ccccc3)nc2c1 (stereo not shown),-4.68
4,CN(Cc1ccccc1)C(=O)Cn1cnc2c1c(=O)n(C)c(=O)n2C,-2.15
5,c1ccc(CNc2nnns2)cc1,19.3
6,Cc1sc(NC(=O)COc2ccc(Br)cc2)c(C(N)=O)c1C,-0.95
7,FC(F)(F)c1ccc(-c2noc(-c3ccc4c(c3)OCO4)n2)cc1,-0.671
8,COc1ccc(CCNC(=O)CCN2C(=S)NC(C)(C)CC2C)cc1OC (stereo not shown),2.73
9,CC(=O)c1cc(-c2ccccc2)n(CC(=O)Nc2ccc(C)cn2)c1C,-1.88
10,Cc1cc(/C=C2\SC(=O)N(CCOc3ccc(F)cc3)C2=O)c(C)n1-c1cccnc1,4.18
11,COc1cccc(C(=O)NC(c2ccco2)c2c(O)ccc3ccccc23)c1 (stereo not shown),1.86
12,COc1ccc(-n2cc(-c3ccccc3)c3c(NCC4CCCO4)ncnc32)cc1 (stereo not shown),6.44
13,COC(=O)/C=c1\sc2ncnn2c1=O,0.147
14,Cc1ccc(C(=O)N/C(=C/c2cccc(Oc3ccccc3)c2)C(=O)NCc2ccccc2)cc1,-6.82
15,COc1ccc(C(CC(=O)Nc2nccs2)N2Cc3ccccc3C2=O)cc1OC (stereo not shown),-8.68
16,COc1cccc(CN2CCN(Cc3ccc(OC)c(OC)c3OC)CC2)c1,-6.74
17,CCC(/N=c1\cc(-c2ccc(OC)cc2)oc2ccc(C)cc12)C(=O)O (stereo not shown),-0.169
18,CCc1c(O)nc(SCC(=O)N(CC)CC)n(-c2ccc(F)cc2)c1=O,-2.78
19,Clc1ccc(OCCn2ccnc2)c2ccccc12,1.57
20,COc1ccccc1C1=NC(c2ccccc2OC)c2c(ccc3ccccc23)N1 (stereo not shown),2.55
21,CC12OC(=N)C(C#N)(C(c3ccco3)O1)C(C#N)(C#N)C2c1ccccc1 (stereo not shown),-1.24
22,Cc1c(-c2cccc(Cl)c2)nc2ccccc2c1C(=O)NCCCN1CCOCC1,-1.57
23,CC(C)C[C@H](NC(=O)OCC1CC1)C(=O)NCC#N,-6.46
24,CC(C)c1ccc(CNC(=O)CSCC(=O)Nc2ccc3ccccc3c2)cc1,5.31
25,CCC(=O)Nc1nc2ccccc2n1CCN1CCOCC1,2.6

row,Structure (SMILES),% Inhibition @ 10 uM [%]
1,COc1ccc(CNC23CC4CC(CC(C4)C2)C3)cc1C,1.8
2,OCCNc1nc(Nc2cccc(O)c2)nc2ccccc12,-4.49
3,COc1ccccc1C1Nc2ccccc2N=C2CC(C)(C)CC(O)=C21 (stereo not shown),-4.41
4,CCOC(=O)c1cnc2c(Cl)cc(Cl)cc2c1NCCOCCO,4.18
5,COc1ccc(N2CCN(C(=O)CCC(=O)O)CC2)cc1,1.67
6,Cc1sc2nc(NCc3ccccc3)nc(O)c2c1C,-1.66
7,CCC(C)OC(=O)C1=C(C)NC(=O)CC1c1cc2c(cc1Br)OCO2 (stereo not shown),-4.16
8,CC1=CC(C)C(CN(CCO)CC2C(C)C=C(C)CC2C)C(C)C1 (stereo not shown),-1.42
9,Cc1cc(C)nc(NC(=O)COc2ccc(Cl)cc2C)c1,-0.643
10,Cc1ccc(C)c(S(=O)(=O)NCc2ccncc2)c1,-7.5
11,CC(C)CCOC(=O)c1c[nH]nc1[N+](=O)[O-],-5.65
12,CC(C)c1[nH]nc2c1C1(CCN(Cc3ccccc3)CC1)C(C#N)=C(N)O2,2.32
13,c1ccc(CCN2CCC(N3CCN(Cc4ccccc4)CC3)CC2)cc1,-1.81
14,CCCOc1ccc(-c2csc3ncn(CC)c(=O)c23)cc1,3.81
15,CCN(CC)c1ccc(C=C2C(=O)NC(=S)NC2=O)c(OC)c1,1.29
16,FC(F)(F)c1cccc(-n2cnnn2)c1,-1.71
17,OCCC/N=c1\cc(O)oc2ccccc12,-9.37
18,O=C1NC(=S)N/C1=C\c1cc([N+](=O)[O-])c(Cl)cc1Cl,-6.7
19,COC(=O)c1ccc(-c2ccco2)n1CC(=O)N1CCC(C(N)=O)CC1,-1.67
20,Cc1nc2nc(SCC(=O)NCc3ccc4c(c3)OCO4)nn2c(C)c1Cc1ccccc1Cl,4.14
21,CC1(O)C(=O)c2ccccc2N(c2ccccc2)C1=O (stereo not shown),0.408
22,CCCCNC(=O)C1CCN(S(=O)(=O)c2ccc(Br)cc2)CC1,-0.641
23,CCCN(CCC)S(=O)(=O)c1cc2nc(O)c(O)nc2cc1C,-0.0621
24,COc1cc2c(cc1OC)-c1nnc(-c3cc(OC)c(OC)c(OC)c3)n1C(C)(C)C2,0.317
25,O=C(NC(=O)c1c(F)cccc1F)Nc1c(F)cccc1F,0.727

row,Structure (SMILES),% Inhibition @ 10 uM [%]
1,Cc1nc2sc(C(=O)N3CCC(C)CC3)c(N)c2c(C)c1Cl,6.38
2,Oc1nc(CSc2nc[nH]n2)nc2ccccc12,2.99
3,O=C(Nc1ccc2oc(-c3ccccc3F)nc2c1)c1ccccc1F,-0.622
4,COc1ccc(-c2nnc(SCC(=O)c3ccc(C)o3)n2-c2ccccc2)cc1,2.7
5,Cc1ccccc1C(=O)N1CCC(C(=O)O)CC1,0.755
6,Cc1ccc(CCNS(=O)(=O)c2ccc3[nH]c4c(c3c2)CCCC4)cc1,-0.878
7,COc1cc(OC)cc(C(=O)NC(C)C23CC4CC(CC(C4)C2)C3)c1 (stereo not shown),-0.424
8,O=C(NCC1COc2ccccc2O1)C1(c2ccccc2)CCCC1 (stereo not shown),-1.16
9,CS(=O)(=O)N(CC(=O)N1CCN(Cc2ccccc2)CC1)Cc1ccccc1,-5.6
10,CCc1ccc(C2C(C(=O)c3ccc4c(c3)CC(C)O4)=C(O)C(=O)N2CCOC)cc1 (stereo not shown),-2.84
11,COc1ccc2[nH]c3c(=O)n(CCCCC(=O)N(C)Cc4ccccc4)c(=S)[nH]c3c2c1,4.28
12,CC1(C)CC(=O)C(/C=N/c2cccc(/N=C/C3=C(O)CC(C)(C)CC3=O)n2)=C(O)C1,2.03
13,Cc1c(CNC(C)c2ccccc2)c(C(=O)O)c(C)n1Cc1ccccc1F (stereo not shown),-7.36
14,Cn1c2c(c(=O)n(C)c1=O)C(c1cccc(Cl)c1Cl)CC(=O)N2 (stereo not shown),-0.396
15,COc1nc(C)nc(NC(=O)NS(=O)(=O)c2ccccc2C)n1,0.716
16,CCOc1ccccc1-c1cc(C(=O)NCc2ccncc2)c2ccccc2n1,0.467
17,Cc1ccc(C(=O)NCc2nc(-c3ccc(Cl)cc3)no2)c(C)c1,2.14
18,CCN1/C(=C\C(=O)c2ccc(C)cc2)Sc2ccccc21,6.08
19,Cc1ccc(-c2nc(CSCC(=O)NC3CCCCC3C)c(C)o2)cc1 (stereo not shown),-1.05
20,Cc1ccc(Nc2nc(N)nc(CSc3nccn3C)n2)cc1,-0.105
21,CCCCN1C(C)=CC(=C2C(=O)c3ccccc3C2=O)C=C1C,2.03
22,CCC(C)NC(=O)CNC(=S)N(Cc1ccccc1)Cc1cccnc1 (stereo not shown),1.27
23,Cc1ccc(OCC(=O)Nc2nc(-c3ccc(S(=O)(=O)N4CCOCC4)cc3)cs2)cc1C,5.92
24,O=C(CSC1=NC(=O)C(c2ccccc2)C(=O)N1)NC1CCCCC1 (stereo not shown),-2.26
25,COc1ccccc1C(=O)N1CCN(Cc2ccccc2)CC1,-3.49

row,Structure (SMILES),% Inhibition @ 10 uM [%]
1,Cc1ccc2cc3cc(C(=O)NCCN(C)Cc4ccccc4)sc3nc2c1,-2.12
2,CN1C(=O)c2ccc(N3C(=O)c4ccc(Br)cc4C3=O)cc2C1=O,23.3
3,CN1C/C(=C\c2ccc(F)cc2)C(=O)/C(=C/c2ccc(F)cc2)C1,2.59
4,COc1ccc(/C=c2\s/c(=C/C(=O)c3ccc(C)cc3)[nH]c2=O)cc1OC,-5.24
5,Cc1ccccc1N(CC(=O)N(C)Cc1ccccc1)S(=O)(=O)c1ccccc1,-8.78
6,CCC(C)(C)C(=O)Nc1ccc(S(=O)(=O)N2CCC(C)CC2)cc1,-10.2
7,O=C(CN1CCCC1)N1c2ccccc2Sc2ccc(C(F)(F)F)cc21,-0.294
8,O=C(NCc1ccccc1)C1CCCN(S(=O)(=O)c2cccs2)C1 (stereo not shown),6.82
9,CCOc1ccc(Nc2[nH]nc(C)c2[N+](=O)[O-])cc1,-7.46
10,CC(c1ccccc1)n1cnc2ccccc21 (stereo not shown),9.03
11,Cc1ccc(OCCCC(=O)Nc2sc3c(c2C#N)CCC(C)C3)cc1 (stereo not shown),-1.25
12,CCCCNC(=O)c1cc(-c2ccc(O)c(OC)c2)nc2[nH]nc(-c3ccccc3)c12,10.1
13,CCOc1ccccc1/C=c1\sc2nc(-c3cccc(Cl)c3)nn2c1=O,2.24
14,Cc1nnnn1-c1nc(-c2ccc(Cl)cc2)cc(C(F)(F)F)n1,-8.56
15,Cc1ccc(-c2noc(CCC(=O)NCCN3CCN(Cc4ccccc4)CC3)n2)cc1,4.05
16,CCCCN(C)C1CCN(C(=O)OCC)CC1,1.88
17,CCOC(=O)N1CCN(c2nn3nnnc3c3ccccc23)CC1,2.81
18,CCCOCCOC(=O)C1=C(C)NC(=O)CC1c1ccccc1OC (stereo not shown),5.86
19,CCc1ccccc1NC(=O)CN(c1ccc(C(C)C)cc1)S(C)(=O)=O,-7.69
20,CCC(C)C1C(C#N)=C(N)OC2=C1C(=O)CCC2 (stereo not shown),-5.34
21,C=CCOC(=O)c1sc(N2C(=O)c3oc4ccc(F)cc4c(=O)c3C2c2ccc(O)cc2)nc1C (stereo not shown),-3.13
22,O=C(CSc1nsc(SCC(=O)N2CCOCC2)n1)N1CCOCC1,0.361
23,Cc1onc(-c2ccccc2)c1C(=O)n1cccn1,-4.03
24,COC(=O)C1=C(C)N(C)C(=S)NC1c1ccc(OC)c(OC)c1 (stereo not shown),-0.339
25,CCC1CCCCN1Cc1nc2c(c(=O)n(C)c(=O)n2C)n1Cc1ccccc1 (stereo not shown),-2.29
